Data reported in the RNAGym collection of RNA variant scans (doi:10.1093/nar/gkz1192).
The source gives no read counts; variants with many changes may rest on few reads.

B1: CPEB3 Ribozyme (parent)
chain: UAACAGGGGGCCACAGCAGAAGCGUUCACGUCGCAGCCCCUGUCAGAUUCUGGUGAAUCUGCGAAUUCUGCUGUAUAUCUC

Variants of: B1
Test: self-cleavage, relative activity (ratio to wild type); higher = more cleavage; in vitro, sequencing
How it was run: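 Barcoded CPEB3 ribozyme mutants, produced by rounds of error-prone PCR, self-cleaved while being transcribed with T7 RNA polymerase for 5 hours at 37°C and during a subsequent 15 min DNase I step before EDTA was added. Sequencing of template-switched cDNA on Illumina gave cleaved and total reads, and DNA sequencing assigned barcodes to variants. Each variant's relative activity is its cleaved/total read fraction divided by the unmutated ribozyme's fraction, averaged across three batches. A variant needed a minimum of 5 reads.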
With UAACAGGGGACCACUGCAGAAGCGUUCACGUCGCAGCCCCUGUCGGAUUCUGGUGAGUCUGCGAAUUCUGCUGUAUAUCUC [G10A A15U A45G A57G] the self-cleavage was 0.04. With UAACAGGGGACCACUGCAGAAGCGUUCACGUCGCAGCCCCUGUCAGAUUCUGGUGGAUCUGCGAAUCCUGCUGUAUAUCUC [G10A A15U A56G U67C] the self-cleavage was 0.35. UAACAGGGGACCACUGCAGAAGCGUUCAUGUCGCAGCCCCUGUCGGAUUCUGGUGAAUCUGCGAUUCCUGCUGUAUAUCUC [G10A A15U C29U A45G A65U U67C] showed a self-cleavage of 0.04. UAACAGGGGACCACUGCAGAAGCAUUCACGUCGCAGCCCCAGUCAGAUUCUGGUGAUUCUGCGUAUUCUGCCGUAUAUCUC [G10A A15U G24A U41A A57U A64U U72C] showed a self-cleavage of 0.05. Work on UAACAGGGGACCACUGCAGAAGCGUUCACGGCGCAGCCCCUGUCAGAUUCUGGUGAAUCUGCGAAUCCUGCUGUGUAUCUC [G10A A15U U31G U67C A75G] yielded a self-cleavage of 0.08. Work on UAACAGGGGACCACAGCGGAGGCGUACACGUCGCAGCCCCUGUCAGAUUCUGGUGAAUCUGCGAAUUCCGCCGUAUAUCUC [G10A A18G A21G U26A U69C U72C] yielded a self-cleavage of 0.2. Work on UAACAGGGGACCACAGCGGAUGCGUUCACGUCGCAGCCCCGGUCAGAUUCUGGUGAAUCUGCGAAUUCUGCUGUAUAUCUC [G10A A18G A21U U41G] yielded a self-cleavage of 0.05. For UAACAGGGGACCACAGCGGAAGCGUUCUCGUCGCAGCCCCUGUCAGAUUCUGGUGAAUCUGCGAGUUCAGCCGUAUAUCUC [G10A A18G A28U A65G U69A U72C], the self-cleavage was 0.05. For UAACAGGGGACCACAGCGGAAGCGUUCACGUCGCUGCCCCUGUCAGAUACUGGUGAAUCUGCGGAUUCUGCUGUAUAUCUC [G10A A18G A35U U49A A64G], the self-cleavage was 0.04. For UAACAGGGGACCACAGCGGAAGCGUUCACGUCGCAGCCGCUGUCAGAUCCCGGUGAAUCUGCGAAUUCUGCUGUAUAUCCC [G10A A18G C39G U49C U51C U80C], the self-cleavage was 0.04. With UAACAGGGGACCACAGCGGAAGCGUUCACGUCGCAGCCCCUGUUAGAUUCUGGUGAAUCUGCGAAUUCUGCUGUAUAUCUC [G10A A18G C44U] the self-cleavage was 0.2. With UAACAGGGGACCACAGCGGAAGCGUUCACGUCGCAGCCCCUGUCAGAUUCUGAUGAAUCUGCGAACUCUGCAGUAUAUCUC [G10A A18G G53A U66C U72A] the self-cleavage was 0.05. For UAACAGGGGACCACAGCGGAAGCGUCCACGUCGCAGCCCCGGUCAGAUUCUGGUGAAUCUGCGAAUUCUGCUGUAUAUCUC [G10A A18G U26C U41G], the self-cleavage was 0.32. With UAACAGGGGACCACAGCGGAAGCGUUCACGUCGCAGCCCCAGGCAGAUUCUGGUGAAUCUGCGAAUUCUGCUGUAUAUCUC [G10A A18G U41A U43G] the self-cleavage was 0.05. Work on UAACAGGGGACCACAGCGGAAGCGUUCACGUCGCAGCCCCAGUCAGAUUCUGGCGAAUCUGCGAAUUCUGCUGUAUAUCUC [G10A A18G U41A U54C] yielded a self-cleavage of 0.11. Variant UAACAGGGGACCACAGCGGAAGCGUUCACGUCGCAGCCCCUGCCAGAUUCUGGGGAAUCUGCGAAUUCAGCUGUAUAUCUC [G10A A18G U43C U54G U69A] has a self-cleavage of 0.06. UAACAGGGGACCACAGCGGAAGCGUUCACGUCGCAGCCCCUGUCAGAUUCUGGCGAAUCUGCGAAUUCUGCUGUAUAACAC [G10A A18G U54C U78A U80A] showed a self-cleavage of 0.32. For UAACAGGGGACCACAGCUGAGGCGUUCACGUCGCAGCCCCAGUCAGAUUCUGGUGAAUCUGCGAAUCCUGCUGUAUAUCUC [G10A A18U A21G U41A U67C], the self-cleavage was 0.06. With UAACAGGGGACCACAGCUGAAGCGUUCACGUCGCAGACCCUGUCAGACUCUGGUGAAUCUGCGAAUUCUGCUGUAUAUCUC [G10A A18U C37A U48C] the self-cleavage was 0.26. UAACAGGGGACCACAGCUGAAGCGUUCACGUCGCAGCCACUGUCAGAUUCUGGUGAAUCUGCGAAUUCAGCUGUAUAUCUC [G10A A18U C39A U69A] gave a self-cleavage of 0.06. With UAACAGGGGACCACAGCUGAAGCGUUCACGUCGCAGCCCCUGUCAGAUUCUGGUGAAUGUGCGAAUUCUGCUGUAUACCAC [G10A A18U C59G U78C U80A] the self-cleavage was 0.04. In the case of UAACAGGGGACCACAGCUGAAGCGUUCACGUCGCAUCCCGUGUCAGAUUCUGGUGAAUCUGCGAAUUCUGCAGUAUAUCUC [G10A A18U G36U C40G U72A], the self-cleavage is reported as 0.09. In the case of UAACAGGGGACCACAGCUGAAGCGUUCACGUCGCAGCCCCAGUCAGAUUCUGGUGAACCUGCGAAUUCUGCUGUAUAUCUC [G10A A18U U41A U58C], the self-cleavage is reported as 0.1. Work on UAACAGGGGACCACAGCUGAAGCGUUCACGUCGCAGCCCCUGACAGGUUCUGGUGGAUCUGAGAAUUCUGCUGUAUGUCUC [G10A A18U U43A A47G A56G C62A A77G] yielded a self-cleavage of 0.03. For UAACAGGGGACCACAGCUGAAGCGUUCACGUCGCAGCCCCUGUCAGAUUCCGGUGAAUCUGCGAAUUCUGCUGUAUAACUC [G10A A18U U51C U78A], the self-cleavage was 0.18. UAACAGGGGACCACAGCAGGAGCGUUCUCGUCGCGGCCCCUGUCAGACUCUGGUGAAUCUGCGAAUUCUGCUGUAUAUCUC [G10A A20G A28U A35G U48C] showed a self-cleavage of 0.35. With UAACAGGGGACCACAGCAGGAGCGUUCACGUCGCGGCCCCUGUCAGAUUCUGGUGAAUCUGAGAAUUCUGCUGUAUACCUC [G10A A20G A35G C62A U78C] the self-cleavage was 0.05. UAACAGGGGACCACAGCAGGAGCGUUCACGUCGCAGCCCCUGCCAGAUUCUGGUGAAUCUGCGAAUUCUGCUGUAUAUCUC [G10A A20G U43C] showed a self-cleavage of 0.08. UAACAGGGGACCACAGCAGGAGCGUUCACGUCGCAGCCCCUGCCAGAUUCUGGUGAGUCUGCGAAUUCUGCUGUAUAUCAC [G10A A20G U43C A57G U80A] showed a self-cleavage of 0.26. UAACAGGGGACCACAGCAGGAGCGUUCACGUCGCAGCCCCUGUCAGAUUCUGGUGAAACUGCGAAUUCUGCUGUAUAUCUC [G10A A20G U58A] showed a self-cleavage of 0.04. For UAACAGGGGACCACAGCAGUAGCGUUCACGUCGCAGCCCCUGUCUGAUUCUGGUGAAUCUGCGAAUUCUGCUGUAUAUCUC [G10A A20U A45U], the self-cleavage was 0.15. For UAACAGGGGACCACAGCAGUAGCGUUCACGUCGCAGCCCCUGUCAGAUUCUGGUGGAUCUGCGACUUCUGCUGUAUAUCUC [G10A A20U A56G A65C], the self-cleavage was 0.03. UAACAGGGGACCACAGCAGUAGCGUUCACGUCGGAGCCCCUGUCAGAUUCUGGUGAAUCUGCGAAUUAUGCUGUAUAUCUC [G10A A20U C34G C68A] showed a self-cleavage of 0.07. UAACAGGGGACCACAGCAGUAGCGUCCACGUCGCAGCCCCUGUCUGAUUCUGGUGAAUCUGCGAAUUCUGCAGUAUAUCUC [G10A A20U U26C A45U U72A] showed a self-cleavage of 0.17.
